Results taken from PubChem BioAssay AID588855 (National Center for Advancing Translational Sciences (NCATS), 2011).
About 5,000 (1.2%) of roughly 410,000 compounds were called active. This list was built around the results that the source calls inconclusive (neither active nor inactive); the mix of calls is not that of the screen. Calls follow the shape of the dose curve; as a rule, active = well fitted inhibition curve with a large enough effect; inconclusive = small, poorly fitted or top-dose-only effect; inactive = no such curve, though single readings can be large or run the other way. Potencies of inconclusive entries are doubtful fits and often do not repeat.

assay: qHTS for Inhibitors of TGF-b; conditions: HepG2 CAGA-GFP TGF-b/SMAD3 reporter, GFP fluorescence, 18 h, TGF-beta stimulated, 500 pg/mL final; series mostly up to 46.1 µM; also: nearly all actives have a fitted effect of over 65% in size
In short: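 Smad-responsive CAGA-GFP expression was quantified in HEPG2 cells exposed to compounds and 500 pg/mL final TGF-beta for 18 h at 37 degrees C; unstimulated wells defined full inhibition.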
Potency is read from the fitted curve at half-maximal effect; tags tell the direction and shape of the fitted curve.

| Structure (SMILES) | Potency |
| --- | --- |
| CCOc1cc(CNCCc2ccc(S(N)(=O)=O)cc2)cc(Cl)c1OCc1ccccc1 | inconclusive: 35.5 µM [inhibitor, single point] |
| Cc1ccc(OCC(=O)c2cc(C)c(C)cc2C)c([N+](=O)[O-])n1 | active: 11.2 µM |
| CCc1ccc(NC(=O)Cn2nnc(C(=O)NCc3ccc(C)cc3)c2N)cc1 | inactive |
| COc1ccc(Cn2nc(-c3ccccc3)c(N3CCCCC3)cc2=O)cc1 | inconclusive: 25.1 µM [inhibitor, single point] |
| O=C(NCc1ccco1)c1c(F)c(F)c(F)c(C(=O)NCc2ccco2)c1F | inactive |
| Cc1ccc(NCc2nnc(SCC(=O)N(Cc3ccccc3)C(C)(C)C)o2)c(C)c1 | inconclusive: 20 µM [inhibitor, partial curve] |
| CN1/C(=C/C=C(C#N)C#N)C(C)(C)c2ccccc21 | inactive |
| OC(c1cc(C(F)(F)F)nc2c(Cl)cc(Cl)cc12)C1CCCCN1 (configuration not stated) | inconclusive: 28.2 µM [inhibitor, single point] |
| COc1ccccc1NC(=S)N(CCN1CCCCCC1)Cc1cccs1 | inactive |
| Cc1cc(CSCc2ccc(Cl)cc2)no1 | inactive |
| Cc1ccsc1/C=N/Nc1nc(=O)[nH]nc1C | inconclusive: 25.1 µM [inhibitor, single point] |
| CCc1ccccc1NC(=O)Nc1nnc(N(C)Cc2ccccc2)s1 | active: 12.6 µM |
| COc1cc2c(cc1OC)CN(C(=O)c1ccc(OC)c([N+](=O)[O-])c1)CC2 | inactive |
| Cc1nc(Cl)c(C(=O)NC(C)(C)C)c(C)c1Cl | inactive |
| N#CC(C#N)=C1CCCc2sccc21 | inconclusive: 22.4 µM [inhibitor, single point] |
| O=C1C(=C2CCc3ccccc32)Cc2ccccc21 | inactive |
| COc1ccccc1NC(=O)NC(=O)N(C(C)C)S(C)(=O)=O | inconclusive: 6.31 µM [inhibitor, single point] |
| CCCCCCCN1C2=NCCCN2c2ccccc21 | inconclusive: 35.5 µM [inhibitor, single point] |
| Cc1cc(N2CCN(C)CC2)nc2ccc(NC(=O)c3cccnc3Cl)cc12 | inactive |
| Cc1ccc(-c2nsc(SCC(=O)Nc3ccc4c(c3)OCO4)n2)cc1 | inconclusive: 4.47 µM [inhibitor, partial curve, poor fit] |
| CN1CCN(C(=O)CCCN2C(=O)/C(=C/c3ccccc3)SC2=S)CC1 | inconclusive: 17.8 µM [inhibitor, single point] |
| CC1CCN(C2CCN(C(=O)c3ccccc3F)CC2)CC1 | inactive |
| CCOc1ccccc1CNC(=O)c1ccc(NC(=O)N2CCSc3ncccc32)cc1 | inactive |
| COC(=O)C1CCN(CC(=O)Nc2cc(C)c3c(=O)oc4ccccc4c3n2)CC1 | inactive |

| Structure (SMILES) | Potency |
| --- | --- |
| O=C(Nc1nnc(S(=O)(=O)N2CCCc3ccccc32)s1)c1cccc(F)c1 | inconclusive: 35.5 µM [inhibitor, single point] |
| O=S1(=O)CCO[C@H]2Cc3ccccc3[C@H]2N1Cc1ccccc1F | inactive |
| CCOc1ccccc1N(CC(=O)N1CCC(C)CC1)S(=O)(=O)c1ccc(C)cc1 | inactive |
| CCn1c(SCc2ccc(F)cc2Cl)nnc1-c1nonc1NC(C)=O | inconclusive: 35.5 µM [inhibitor, partial curve, poor fit] |
| CC(C)(C)c1ccc(S(=O)(=O)c2cn(CC(=O)Nc3ccccc3)c3ccccc3c2=O)cc1 | inconclusive: 12.6 µM [inhibitor, partial curve, poor fit] |
| O=C1/C(=C\c2ccccc2)CN(C(=O)CCN2CCCCC2)C/C1=C/c1ccccc1 | active: 15.8 µM |
| Cc1cc(NC(=O)CN2CC(C)OC(C)C2)n(-c2nc3ccccc3s2)n1 (configuration not stated) | inconclusive: 6.31 µM [inhibitor, single point] |
| O=C(Nc1cccc(Cl)c1)N1CCC(CN2CCOCC2)CC1 | inactive |
| COc1ccc(N(Cc2cccs2)C(=O)c2ccc(C(C)(C)C)cc2)cc1 | inconclusive: 35.5 µM [inhibitor, partial curve, poor fit] |
| COc1ccc(O)c(C(=O)c2cc(C#N)c(=O)n(Cc3ccccc3)c2)c1 | inconclusive: 22.4 µM [inhibitor, single point] |
| C[C@H]1COC(=O)[C@H](CC(=O)OC(C)(C)C)C/C=C\C[C@@H](CC(=O)NCCO)C(=O)N1 | inactive |
| O=C(c1ccc(Cl)cc1)N1CCN(c2ccnc3cc(Cl)ccc23)CC1 | inconclusive: 7.08 µM [inhibitor, full curve, poor fit] |
| CCOC(=O)N1CCC(NC(=O)c2cnn(-c3ccc(F)cc3F)c2C2CCN(C(=O)OC(C)(C)C)CC2)CC1 | inconclusive: 1.12 µM [inhibitor, partial curve, poor fit] |
| C#CCNC(=O)C1=C[C@@H](c2ccc3c(c2)OCO3)C[C@@H](OCc2ccc(CO)cc2)O1 | inconclusive: 0.631 µM [inhibitor, partial curve, poor fit] |
| COc1ccc(-c2nnc(NC(=O)c3ccc(F)cc3)o2)cc1 | inconclusive: 35.5 µM [inhibitor, single point] |
| CC(=O)Oc1cccc(N2C(=O)C3C4C=CC(C4=C(C)C)C3C2=O)c1 (configuration not stated) | inactive |
| CNC(=S)N(CCc1c(C)[nH]c2ccc(C)cc12)Cc1cccs1 | inconclusive: 35.5 µM [inhibitor, single point] |
| CC(C)c1ccc(NC(=O)C[n+]2ccn(C3=C([O-])c4ccccc4C3=O)c2)cc1 | inactive |
| CCOCCn1c(CN(Cc2ccccc2)Cc2ccccc2)nc2c1c(=O)n(C)c(=O)n2C | inconclusive: 35.5 µM [inhibitor, single point] |
| COc1ccc(N2C(=O)c3cccc4cccc(c34)C2=O)cc1 | inconclusive: 35.5 µM [inhibitor, single point] |
| COc1ccccc1C(=O)NC(C)c1cccc2ccccc12 (configuration not stated) | inactive |
| Cc1ccc(C(=O)/C=C/c2c[nH]c3ccccc23)cc1 | inconclusive: 25.1 µM [inhibitor, single point] |
| O=C(COC(=O)Cn1cnc2ccccc2c1=O)Nc1ccccc1Sc1ccc(Cl)cc1 | inconclusive: 5.62 µM [inhibitor, single point] |
| CNc1ccc(-c2nc(-c3ccco3)no2)cc1[N+](=O)[O-] | inactive |

| Structure (SMILES) | Potency |
| --- | --- |
| CC1CCCN(CCOCCOc2ccccc2-c2ccccc2)C1 (configuration not stated) | inconclusive: 14.1 µM [inhibitor, partial curve, poor fit] |
| CCN(CC)c1ccc(NC(=O)CCc2nc3cccnc3n2Cc2cccs2)c(C)c1 | inactive |
| O=C(NNS(=O)(=O)c1ccccc1)c1cccs1 | inconclusive: 7.08 µM [inhibitor, partial curve] |
| N#Cc1cnc2c(-c3ccccc3)c(-c3ccccc3)nn2c1N | inconclusive: 35.5 µM [inhibitor, single point] |
| COc1ccc(-c2nc(CS(=O)CC(=O)NC3CCCCC3C)c(C)o2)cc1 (configuration not stated) | inconclusive: 22.4 µM [inhibitor, single point] |
| CCC(=O)N(Cc1ccc(C)cc1)Cc1cc2cc3c(cc2[nH]c1=O)OCO3 | inconclusive: 7.94 µM [inhibitor, partial curve, poor fit] |
| CC(=O)c1c(C)[nH]c(C(=O)OCC(=O)Nc2sc3c(c2C#N)CCC(C)C3)c1C (configuration not stated) | inactive |
| NS(=O)(=O)c1ccc(CCNC(=O)Cn2c(-c3cccs3)cc3ccccc32)cc1 | inconclusive: 35.5 µM [inhibitor, single point] |
| Cc1cc2c(cc1C)NC(CC(=O)Nc1cccc(Cl)c1)C(=O)N2 (configuration not stated) | inconclusive: 14.1 µM [inhibitor, single point] |
| CCOC(=O)N1C/C(=C\c2ccccc2)C(=O)/C(=C/c2ccccc2)C1 | active: 2 µM |
| COc1ccc(-n2ncc(C(C)NS(=O)(=O)c3ccc(C(C)=O)cc3)c2C)cc1 (configuration not stated) | inactive |
| Cc1ccc(-c2onc3ccc(C=O)cc23)cc1 | inactive |
| NC(=O)C1CCCN(C(=O)c2cccc(NC(=O)c3cccs3)c2)C1 (configuration not stated) | inactive |
| COc1ccc2c(c1)c1c(c(=O)n(-c3ccc(C)cc3)c(=O)n1CC(=O)NCc1ccc(C)cc1)n2C | inconclusive: 6.31 µM [inhibitor, single point] |
| CCN1C(=O)[C@H]2[C@@H](c3ccc(SC4CCCCC4)c(OC)c3)N3CCCC[C@@]3(C(=O)OC)[C@H]2C1=O | inconclusive: 22.4 µM [inhibitor, single point] |
| O=C(NC(c1cccnc1)C(F)(F)F)c1cc(COc2ccc3c(c2)CCCC3)on1 (configuration not stated) | active: 11.2 µM |
| COc1ccc(Cl)cc1NC(=O)c1nnn(Cc2cccc(C(F)(F)F)c2)c1N | inconclusive: 22.4 µM [inhibitor, partial curve, poor fit] |
| CCN1CCN(c2nc(Nc3ccc(C)c(C)c3)nc(N)c2[N+](=O)[O-])CC1 | inactive |
| Cc1ccccc1-c1nc2cc(Cl)ccc2o1 | inconclusive: 1.12 µM [inhibitor, full curve, poor fit] |
| OCc1cc(C(O)CNCCCCCCOCCCCc2ccccc2)ccc1O (configuration not stated) | inconclusive: 22.4 µM [inhibitor, single point] |
| CCC(C)Sc1oc(-c2ccco2)nc1S(=O)(=O)c1ccc(C)cc1 (configuration not stated) | inconclusive: 35.5 µM [inhibitor, single point] |
| Cc1ccc(CNc2ncnc3c2cnn3-c2ccc(Cl)cc2)cc1 | inactive |
| OCC[C@@H]1C[C@H](O)[C@@H](O)[C@]2(OCc3ccccc32)O1 | inconclusive: 35.5 µM [inhibitor, single point] |
| Cc1[nH]nc2c1C(c1cccs1)C1=C(CCCC1=O)N2 (configuration not stated) | inconclusive: 35.5 µM [inhibitor, single point] |
